The results in this text go back to PubChem BioAssay (NCI).

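Cultured in 96-well plates, cells were exposed to test compound for 48 hours across five concentrations. At the TGI there is no net growth.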 A number of entries come with more than one value. The other results are left out here. The source may hold further records. A record mostly stands for its own series of concentrations, not given here; a value can be the end of its range. Where only a bound is given, the exact number is not on record here.

Common to all, as to assay: NCI tumour cell line growth inhibition, 48 h
The subject of test [1] is COLO 205 colon.
Test [2] concerns CAKI-1 renal.
Test [3] deals with HCT-116 colon.

Take `CSCS(=O)C[C@H](CO)NC(=O)/C=C/c1c(C)[nH]c(=O)[nH]c1=O` (stereo partly drawn): the TGI was > 40.4 µM and 3.49 µM in test [1]; > 100 µM and 4.94 µM in test [2]; > 92.7 µM and 7.56 µM in test [3].
